In publication PMC3342948:
No constants are given. Whether binding was seen depends on the method and setting. In cells and extracts the contact can be indirect. Some results given as binding are weak or reduced against the parent protein; the word gives no strength.

Chains of the proteins cited; added tags and fusions are not shown. Lines headed by an entry give the natural chain unless they say otherwise; changes in a name come on top. A line that says so, or that is headed by a name, gives the form on record, which may keep a tag or linker. Residues count along the entry.
UniProt P25490: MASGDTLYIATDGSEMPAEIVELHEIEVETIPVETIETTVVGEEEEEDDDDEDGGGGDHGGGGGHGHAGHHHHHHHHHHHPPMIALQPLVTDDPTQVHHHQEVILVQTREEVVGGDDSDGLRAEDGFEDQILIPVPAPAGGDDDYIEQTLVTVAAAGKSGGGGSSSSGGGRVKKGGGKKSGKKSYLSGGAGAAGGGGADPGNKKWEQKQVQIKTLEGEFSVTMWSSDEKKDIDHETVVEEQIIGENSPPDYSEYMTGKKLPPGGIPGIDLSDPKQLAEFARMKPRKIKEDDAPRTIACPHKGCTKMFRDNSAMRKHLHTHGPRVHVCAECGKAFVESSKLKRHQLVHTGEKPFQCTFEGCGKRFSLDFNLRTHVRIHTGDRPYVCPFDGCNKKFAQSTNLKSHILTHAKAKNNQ
YY1 C-terminal domain (a.a. 251-414), Flag-tagged: residues 251-414 of P25490
YY1 C-terminal domain (amino acid 251-320), Flag-tagged: residues 251-320 of P25490
UniProt Q14209: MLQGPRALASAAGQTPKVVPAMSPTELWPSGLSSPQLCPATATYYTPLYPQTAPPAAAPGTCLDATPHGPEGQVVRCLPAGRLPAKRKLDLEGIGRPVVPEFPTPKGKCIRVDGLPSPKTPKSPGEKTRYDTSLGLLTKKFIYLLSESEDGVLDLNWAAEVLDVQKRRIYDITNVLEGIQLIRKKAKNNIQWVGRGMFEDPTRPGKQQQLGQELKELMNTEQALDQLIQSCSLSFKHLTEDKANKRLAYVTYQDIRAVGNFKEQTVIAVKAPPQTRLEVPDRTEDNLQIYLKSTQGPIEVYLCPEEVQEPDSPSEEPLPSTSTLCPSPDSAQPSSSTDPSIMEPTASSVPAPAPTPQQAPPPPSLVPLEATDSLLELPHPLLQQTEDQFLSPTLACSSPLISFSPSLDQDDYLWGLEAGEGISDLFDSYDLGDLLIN
E2F3b (O00716, form named): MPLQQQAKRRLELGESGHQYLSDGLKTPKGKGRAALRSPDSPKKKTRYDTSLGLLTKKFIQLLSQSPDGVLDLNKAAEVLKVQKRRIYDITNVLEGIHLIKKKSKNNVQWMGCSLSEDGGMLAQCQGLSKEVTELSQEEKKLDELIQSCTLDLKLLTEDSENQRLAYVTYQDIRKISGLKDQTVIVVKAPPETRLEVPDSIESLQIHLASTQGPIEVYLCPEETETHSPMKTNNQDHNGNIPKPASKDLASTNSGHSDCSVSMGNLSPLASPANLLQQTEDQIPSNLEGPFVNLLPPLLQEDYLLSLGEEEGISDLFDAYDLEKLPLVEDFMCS
M-MITF central b-HLH-Zip (amino acid 181-300), HA-tagged (O75030, residues 288-407): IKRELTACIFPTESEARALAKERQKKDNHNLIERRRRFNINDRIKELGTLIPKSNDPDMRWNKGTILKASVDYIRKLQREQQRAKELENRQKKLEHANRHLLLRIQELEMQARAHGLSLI
M-MITF smaller b-HLH-Zip domain (amino acid 181-264), HA-tagged (O75030, residues 288-371): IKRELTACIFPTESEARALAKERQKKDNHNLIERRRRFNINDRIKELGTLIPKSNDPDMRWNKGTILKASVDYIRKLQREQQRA
M-MITF C-terminal TAD (amino acid 301-419), HA-tagged (O75030, residues 408-526): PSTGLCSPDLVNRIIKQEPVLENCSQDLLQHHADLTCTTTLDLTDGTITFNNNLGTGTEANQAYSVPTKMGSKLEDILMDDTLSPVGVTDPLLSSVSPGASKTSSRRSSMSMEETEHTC
HA-tagged M-MITF, full length (O75030-9, form named): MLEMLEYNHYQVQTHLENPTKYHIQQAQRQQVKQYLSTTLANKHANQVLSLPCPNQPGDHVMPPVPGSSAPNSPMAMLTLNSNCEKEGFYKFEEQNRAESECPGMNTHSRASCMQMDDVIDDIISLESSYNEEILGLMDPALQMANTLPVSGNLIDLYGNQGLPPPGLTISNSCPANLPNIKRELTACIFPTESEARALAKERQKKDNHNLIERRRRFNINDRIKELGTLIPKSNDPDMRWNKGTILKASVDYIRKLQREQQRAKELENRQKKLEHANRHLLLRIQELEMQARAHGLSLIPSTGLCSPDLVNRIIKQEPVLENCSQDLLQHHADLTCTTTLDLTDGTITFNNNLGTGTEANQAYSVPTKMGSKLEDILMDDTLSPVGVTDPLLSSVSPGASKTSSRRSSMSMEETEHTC
M-MITF N-terminal TAD (amino acid 1-180), HA-tagged (O75030-9, form named): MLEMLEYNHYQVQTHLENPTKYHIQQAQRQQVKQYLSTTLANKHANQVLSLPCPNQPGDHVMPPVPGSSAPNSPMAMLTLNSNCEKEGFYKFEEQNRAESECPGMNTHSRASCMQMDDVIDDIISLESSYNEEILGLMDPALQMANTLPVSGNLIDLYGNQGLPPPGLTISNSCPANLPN
UniProt P19532: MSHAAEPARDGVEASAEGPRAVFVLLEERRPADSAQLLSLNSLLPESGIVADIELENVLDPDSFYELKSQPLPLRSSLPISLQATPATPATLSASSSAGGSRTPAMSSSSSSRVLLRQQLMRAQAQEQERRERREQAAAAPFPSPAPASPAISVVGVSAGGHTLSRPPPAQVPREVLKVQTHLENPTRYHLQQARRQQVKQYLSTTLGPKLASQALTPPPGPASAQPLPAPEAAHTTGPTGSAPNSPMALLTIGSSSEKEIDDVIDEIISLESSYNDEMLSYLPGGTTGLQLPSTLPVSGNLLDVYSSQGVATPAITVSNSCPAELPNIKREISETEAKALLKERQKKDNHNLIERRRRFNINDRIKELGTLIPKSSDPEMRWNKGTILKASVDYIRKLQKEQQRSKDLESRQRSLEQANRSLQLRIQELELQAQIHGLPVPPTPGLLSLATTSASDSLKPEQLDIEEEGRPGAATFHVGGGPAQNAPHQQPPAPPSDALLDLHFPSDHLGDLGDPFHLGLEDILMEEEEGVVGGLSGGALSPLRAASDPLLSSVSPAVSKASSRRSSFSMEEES

Key:
[1] = target: Flag-tagged YY1 (Yin Yang 1), full length (human) (UniProt P25490); assay: co-IP; 293T cells co-transfected with the indicated plasmids; total cell lysate immunoprecipitated with anti-Flag M2 agarose beads; western blotting with anti-Flag and anti-HA
[2] = target: Flag-tagged YY1 (Yin Yang 1), full length (human) (UniProt P25490); assay: co-IP; expression constructs of full-length or truncated YY1 and M-MITF (Figure 3D, 3E, S3); cells, beads and antibodies not told for these panels
[3] = target: YY1 C-terminal domain (amino acid 251-320), Flag-tagged (human) (UniProt P25490); assay: as above
[4] = target: YY1 C-terminal domain (a.a. 251-414), Flag-tagged (human) (UniProt P25490); assay: as above
[5] = target: E2F2 (UniProt Q14209); assay: co-IP; 293T cells co-transfected with the indicated plasmids; total cell lysate immunoprecipitated with anti-Flag M2 agarose beads; western blotting with anti-Flag and anti-HA
[6] = target: E2F3b (UniProt O00716); assay: as above

Substance: HA-tagged M-MITF, full length (from UniProt O75030-9 1-419)
- binding [1]: binds
- binding [2]: binds
- binding [3]: binds
- binding [4]: binds

Substance: HA-tagged TFE3 (from UniProt P19532 1-575)
- binding [1]: binds
- binding [5]: no binding
- binding [6]: binds

Substance: M-MITF C-terminal TAD (amino acid 301-419), HA-tagged (from UniProt O75030-9 301-419) (domain or fragment)
- binding [2]: no binding

Substance: M-MITF N-terminal TAD (amino acid 1-180), HA-tagged (from UniProt O75030-9 1-180) (domain or fragment)
- binding [2]: binds

Substance: M-MITF central b-HLH-Zip (amino acid 181-300), HA-tagged (from UniProt O75030-9 181-300) (domain or fragment)
- binding [2]: binds

Substance: M-MITF smaller b-HLH-Zip domain (amino acid 181-264), HA-tagged (from UniProt O75030-9 181-264) (domain or fragment)
- binding [2]: binds
